Residue numbers refer to the chain shown, from its start. Names and notes keep the numbering of the source. These are yes or no findings as the source states them, for the method shown. In cells and extracts the contact can be indirect. Some binding calls cover weakened binding; strength is not graded here. For part of these data: Tags and fused reporters may be left off the sequences shown. Each block holds one binder with its values, some of them ahead of it.
Columns and labels:
[1] = substrate: T1, N terminally 2×FLAG-2×haemagglutinin (FHA)-tagged J3 (Arabidopsis) (UniProt Q94AW8); test: co-IP; anti-FLAG M2 affinity gel IP from deoxycholate-solubilized membrane fractions of the FHA-J3 transgenic line, noncross-linked 16-day-old seedlings; FLAG peptide elution; mock: Col-0
T1 sequence: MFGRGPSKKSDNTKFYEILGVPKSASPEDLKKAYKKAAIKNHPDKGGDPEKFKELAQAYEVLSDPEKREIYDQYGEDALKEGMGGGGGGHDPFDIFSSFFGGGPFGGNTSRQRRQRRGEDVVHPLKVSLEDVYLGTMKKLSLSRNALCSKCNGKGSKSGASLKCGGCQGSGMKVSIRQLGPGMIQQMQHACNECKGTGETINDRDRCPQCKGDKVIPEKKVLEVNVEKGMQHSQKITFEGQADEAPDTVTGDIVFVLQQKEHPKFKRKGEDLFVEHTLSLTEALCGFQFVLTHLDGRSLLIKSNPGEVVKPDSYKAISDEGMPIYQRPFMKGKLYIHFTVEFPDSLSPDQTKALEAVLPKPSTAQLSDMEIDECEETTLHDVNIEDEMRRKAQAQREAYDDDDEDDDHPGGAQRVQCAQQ

[2] = target: T2, ARGONAUTE1 (Arabidopsis thaliana (endogenous in seedlings)) (UniProt O04379); test: co-IP; AGO1 antibody IP from deoxycholate-solubilized microsome (membrane) fractions of seedlings, formaldehyde cross-linked or untreated; IP buffer 50 mM Tris/HCl pH 7.5, 150 mM NaCl, 10% glycerol, 5 mM MgCl2, 0.1% Nonidet P-40; 4 °C; blots with J2/J3, AGO1 and HSP90 antibodies; for comparison of genotypes inputs adjusted to equal recovery of AGO1
T2 sequence: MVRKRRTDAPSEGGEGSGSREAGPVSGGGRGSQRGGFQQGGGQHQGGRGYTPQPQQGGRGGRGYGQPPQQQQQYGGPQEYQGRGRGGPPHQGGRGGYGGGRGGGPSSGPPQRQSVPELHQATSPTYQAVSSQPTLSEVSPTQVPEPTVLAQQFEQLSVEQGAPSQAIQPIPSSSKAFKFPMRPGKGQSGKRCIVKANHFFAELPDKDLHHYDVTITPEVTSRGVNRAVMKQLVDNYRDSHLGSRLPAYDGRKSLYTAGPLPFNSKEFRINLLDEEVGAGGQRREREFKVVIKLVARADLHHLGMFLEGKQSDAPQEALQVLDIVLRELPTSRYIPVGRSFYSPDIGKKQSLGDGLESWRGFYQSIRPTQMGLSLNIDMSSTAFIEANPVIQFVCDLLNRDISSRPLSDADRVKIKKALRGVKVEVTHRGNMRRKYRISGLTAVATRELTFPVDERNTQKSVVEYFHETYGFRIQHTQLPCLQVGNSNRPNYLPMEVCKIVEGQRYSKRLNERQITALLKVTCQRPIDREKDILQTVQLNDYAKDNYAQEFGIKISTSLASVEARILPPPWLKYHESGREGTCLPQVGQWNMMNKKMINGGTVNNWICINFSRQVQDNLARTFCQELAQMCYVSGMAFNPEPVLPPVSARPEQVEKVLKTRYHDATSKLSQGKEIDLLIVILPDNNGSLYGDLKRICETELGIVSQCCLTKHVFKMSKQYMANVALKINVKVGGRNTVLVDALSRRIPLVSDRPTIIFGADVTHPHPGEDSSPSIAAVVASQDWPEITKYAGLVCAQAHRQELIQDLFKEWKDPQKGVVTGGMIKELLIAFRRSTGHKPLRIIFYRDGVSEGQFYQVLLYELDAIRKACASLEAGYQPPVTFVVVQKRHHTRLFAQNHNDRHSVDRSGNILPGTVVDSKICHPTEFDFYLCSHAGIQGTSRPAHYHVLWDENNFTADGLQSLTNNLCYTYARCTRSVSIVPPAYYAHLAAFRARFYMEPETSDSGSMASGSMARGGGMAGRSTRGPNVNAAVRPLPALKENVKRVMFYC

[3] = target: T2, ARGONAUTE1 (Arabidopsis thaliana (endogenous in seedlings)); test: co-IP; AGO1 antibody IP from soluble fractions (100,000 x g supernatant, NaCl added to 150 mM and Nonidet P-40 to 0.5%), noncross-linked 16-day-old seedlings; same amount of AGO1 precipitated as from microsomal fractions

- binding [1]: binds
B1: ARGONAUTE1 (protein, UniProt O04379 1-1048)
chain: T2 sequence

- binding [2]: binds
B4: J3^WT expressed in j2/j3 double knockout background (protein, UniProt Q94AW8 1-420)
chain: T1 sequence

The next lines start with the binder.

B2: J3 (farnesylated heat shock protein 40 homolog) (protein, UniProt Q94AW8 1-420)
chain: T1 sequence
modifications: farnesylated in planta (C-terminal CAAX motif; J3 farnesylation site C417)
- binding [2]: binds
- binding [3]: no binding (condition: in soluble fractions)

B3: J3 in era1 farnesyl transferase mutants (not farnesylated) (protein, UniProt Q94AW8 1-420)
chain: T1 sequence
- binding [2]: binds

B5: J3^C417S, farnesylation-deficient point mutant, expressed in j2/j3 double knockout background (protein, UniProt Q94AW8 1-420)
chain: T1 sequence with C417S
- binding [2]: binds

Reference: article PMC6204899
